# ± gives the standard deviation of the averaged measurements. Some of the results follow.
# Test system: PfAP2-LT AP2 domain (GST-tagged)
# Assay: gcPBM binding intensity (ln(normalized median fluorescence intensity)); higher = stronger DNA binding
# Method in brief: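 In this array assay, P. falciparum DNA-binding domains with a GST tag, expressed in E. coli, were applied for 1 h to primer-extended double-stranded 36-bp intergenic genomic probes and negative controls on an Agilent 4 × 180k array. Bound protein was visualised with Alexa488 anti-GST antibody at 488 nm. Binding intensity is the highest Masliner-normalised natural-log median intensity across replicate spots of either probe orientation.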
row,Sequence,gcPBM binding intensity (ln)
1,AATAAATTATATATCACACATATATATTTATATTTA [CACACA_site5964],8.59 ± 0.42
2,ACATATAAAATATTCACACACAAGTTATAGTTCTCG [CACACA_site3626],9.28 ± 0.36
3,ATATATATATATATAGTGCACATTTATATAATTATT,9.53 ± 0.34
4,AAATGTGAACTATAATAATTTCAACGTCTGATATAA [TGCATGCA_negctrl_site440],8.69 ± 0.47
5,TTTCTTTCGAATGCTTCACACATTACTCTTAAATAG [CACACA_site5265],8.66 ± 0.42
6,CAAAACCTAATATGTACACACATATACATCACACTT [CACACA_site7480],9.36 ± 0.38
7,AAATTTATAAAGAACACACACATATATATATATATA [CACACA_site48],10 ± 0.21
8,ATTTTGTTATTATATATATATATATATATATATATA [XGTACX_negctrl_site590],9.29 ± 0.29
9,ATATTTCTGTCAAGCACACATAATATTAATATATGT [CACACA_site318],9.3 ± 0.29
10,ATTTTAAATTAAATTACACACTACGAATAATATATT [CACACA_site4016],8.7 ± 0.42
11,ATTCATATGAAACACACACACACACCCATAAAAAAA [CACACA_site3246],10.2 ± 0.2
12,TCTTTTCAATTTTATATGATCTTAATATTTTATGAA [GTGCAC_negctrl_site294],8.38 ± 0.46
13,ATTTTTTACATACTCAAATGTTTTAATTTTTTATAT [CACACA_negctrl_site1213],8.76 ± 0.51
14,TTTTTTTTTTTTTACACACACAAAATATTATAGGTA [CACACA_site7209],9.09 ± 0.42
15,ACATTAAAAAATTGTTTGCACTATATAAAATATTAA [GTGCAC_site9728],8.39 ± 0.38
16,AATATAAGAAAAATAACACACACATAAACATATATA [CACACA_site8899],9.54 ± 0.35
17,TTTCTTTTCTTCTCTATTTTTTTTTCACGGCATTAT [TGCATGCA_negctrl_site484],8.74 ± 0.52
18,TATATATATATATATTGTACTTTATATGTTCTTATA [XGTACX_site7545],9.37 ± 0.42
19,TTTTATAAAGGAAAAGCATGCAGACTAAAAGATCAT [TGCATGCA_site150],9.02 ± 0.25
20,AAATATTACATTTGTTAAATAATATGTTATACATAA [XGTACX_negctrl_site484],8.31 ± 0.3
21,TAATGGAGAAAAAAAAAACACACGGTACATTCAAAG [CACACA_site3117],9.01 ± 0.46
22,TGTATAAAAATTTATACACACATTTTATATATTTCA [CACACA_site1015],8.7 ± 0.41

row,Sequence,gcPBM binding intensity (ln)
1,TAATCCATAAGAAGCACACACATATATATATATTTT [CACACA_site1399],9.35 ± 0.35
2,TATTAATTATTATGACATACATATCAGTTATTAAAA [CACACA_negctrl_site600],8.24 ± 0.45
3,GAGAGGAACATTATATGTACATATTAATTCTAAAAT [XGTACX_site5433],8.77 ± 0.47
4,ACAAATAAGTTTTATACACACATATAAGTAAATACA [CACACA_site4157],8.93 ± 0.43
5,ACAATATTTTTTTATAAACACACATATATATAAATA [CACACA_site9175],8.6 ± 0.42
6,TATAGTGATATATACACACACTTGTCTTGTAAAAAT [CACACA_site6594],9.07 ± 0.35
7,TAGACTCCCAGACACACACACACACCCATATAATAT [CACACA_site593],10.2 ± 0.35
8,TTTTTTTTTTTTGGTGCATGCACATTTTGTTTTTTT [TGCATGCA_site570],9.04 ± 0.46
9,TATTATTATTGTTGATGTACATTTAATATAATATAT [XGTACX_site4482],8.63 ± 0.28
10,TTTAATATATATATGTGTACATATAAATTATATATA [XGTACX_site8511],8.39 ± 0.54
11,GTACTTATTAAATGTGCATGTTGATATATAAATGTA [TGCATGCA_site902],8.69 ± 0.33
12,TTTATATTTTAAAAAATAATATTATGTATTTTTAAA [TGCATGCA_negctrl_site507],7.94 ± 0.45
13,ATATACATAAAAATATGTACATATAAAATATATACA [XGTACX_site2394],8.86 ± 0.39
14,ATATAATAAACGTGTACACAATTAAATTATTATATA [CACACA_site5017],8.88 ± 0.41
15,TTATTAAAAATGTATTGTACAAATTTATTAGTAAAT [XGTACX_site4799],8.38 ± 0.42
16,TTTTAATTGTTTATTTGTACATATGTTTAATTATAT [XGTACX_site571],8.96 ± 0.59
17,ATTTATACAAAGCTTCGTACATAATGTATTCTTTTT [XGTACX_site2166],8.93 ± 0.52
18,TTTTTTGCTTGGGTGAGAAAAAATAAAATAAAGGAA [TGCATGCA_negctrl_site139],8.15 ± 0.45
19,TTTTTAAAAAAATTGATTCTTTTTCTTTTTTTTCTT [XGTACX_negctrl_site127],8.09 ± 0.59
20,TTATAATCTTTTGGTTCTATAGAATATCAAAAAATA [CACACA_negctrl_site1149],8.13 ± 0.4
21,AAAAAATAAAAGGAAAAAAAAAAAAAAAAAAAAAAT [CACACA_negctrl_site635],8.64 ± 0.49
22,TATTATTGTCATTTTTTTTTTTTTTTTTTCTATTTC [XGTACX_negctrl_site114],8.55 ± 0.54

row,Sequence,gcPBM binding intensity (ln)
1,AGCACCCACCAACACACACACACACCCACCCACCGA [CACACA_site368],10.22 ± 0.028
2,TTTTGCGAAAAAAGGTGTACTGTAAATATATTGAGG [XGTACX_site8941],8.6 ± 0.34
3,AAATAAATAAATATACGTACATATATATAATATATA [XGTACX_site5124],8.91 ± 0.42
4,TACGTAAATTTTAATACACACTATAGGATATTCTGC [CACACA_site5418],8.9 ± 0.4
5,TTTTTTTTGATTTGTTTGCACTTATTTCCACAATAA,8.79 ± 0.45
6,TTAATATGTTTAACCATTTTACATAAATTGATTTGT [CACACA_negctrl_site1100],8.86 ± 0.5
7,TTTTTTTTTAATTACATAAAATAAAAATATTTCTAT [CACACA_negctrl_site584],8.1 ± 0.51
8,ATTTTATTTATATACACACACATATATATATTATAT [CACACA_site822],9.32 ± 0.37
9,ATATATATATATAGGGGTACTTAAATTTTACTAACC [XGTACX_site1832],9.35 ± 0.085
10,AATAAATAAATAAATTAATATATATATATATATAGA [CACACA_negctrl_site1661],8.6 ± 0.42
11,AAAGGGTTACAAGAGGAACACACAAAAAAATAAATA [CACACA_site8406],9.03 ± 0.83
12,TTTATTAATGGACACACACACACACCCAAAATAAAA [CACACA_site4294],10 ± 0.13
13,TCATATAAAACATGCACACATATGTACTCTTATAAA [CACACA_site3748],8.98 ± 0.3
14,TATATTTATATATGTTGTACTCTCCAATAATATTCC [XGTACX_site4438],8.76 ± 0.52
15,ATTAAATGATCAAGGTGTACATTAACAAGAACTATA [XGTACX_site7022],8.98 ± 0.49
16,TATATATTTATATTTACACACAGTTACTATGTAGAT [CACACA_site3292],9.12 ± 0.34
17,TGAATAAAAAAACCTAGTACTTAAATAAGTATATTT [XGTACX_site7690],8.59 ± 0.54
18,TATATATATACATACGTACACACAAATATTAAAATA [CACACA_site1950],9.03 ± 0.45
19,TAAAAAAAATAGAAACGTACATAAAAAATAAATAAT [XGTACX_site5796],9.04 ± 0.42
20,TATATGTGACATGAATGTACCCAAATTATATAAGAA [XGTACX_site3937],8.77 ± 0.53
21,CATAGGAACATAAGTTGTACGCTATACATACAACAT [XGTACX_site1054],9.05 ± 0.45
22,TATTCTTACACGTTTGCACACTAAAATATATATATA [CACACA_site435],9.01 ± 0.39

row,Sequence,gcPBM binding intensity (ln)
1,ATTTAATATATTTATTGTACATATAAAATAAAAGAA [XGTACX_site2413],8.55 ± 0.35
2,ATAAAATGTATATGAATGCACTTGAAGTTTTTTTTT,8.54 ± 0.52
3,ATAAATCCATGGGTAGTGCGCATTTTTTTTTTTTTT [GTGCAC_site9732],9.17 ± 0.38
4,TTAGTGTATTAATTCTCACACACTAAGAAAAAAAAA [CACACA_site3878],8.72 ± 0.43
5,TCTCCTTGTTCCTTTTTTTTAAAAAAAAACATTAAA [CACACA_negctrl_site679],8.47 ± 0.52
6,TAATAATAATACCAGCGTACATTTTTCTTTCCTACG [XGTACX_site4056],8.97 ± 0.47
7,TTCCTTAATCAATATTGTACTTTTTATAAATTTAGT [XGTACX_site3678],8.72 ± 0.42
8,TCTGTGTTTTTGGGTACACACAAATAGCTTGTATAT [CACACA_site4002],9.14 ± 0.38
9,TGAAAATTAATAAAAAGTACATAGTCAGATTTGTGA [XGTACX_site2450],8.71 ± 0.49
10,TATTTTTTCTTAAACACACACATATATATATATAAT [CACACA_site5567],9.06 ± 0.38
11,CTAAACAAAAAATAATGTACACATACATAAAAAATA [XGTACX_site1808],8.89 ± 0.49
12,TATTGAAAAAATAAAAGTACAAACTCTTATAATATG [XGTACX_site8196],8.55 ± 0.35
13,CCCGAACAAACAAATAAACACACAAAAAAAAATATA [CACACA_site8540],9.15 ± 0.47
14,ATTATATATGTATGGTGTACTAAGAATATTTTTTTA [XGTACX_site1950],8.55 ± 0.45
15,AACACATACAAACACACACACAAAAAAAAAAAAAAA [CACACA_site393],9.65 ± 0.49
16,ATTCAATATAAATACACACACACTTTTAATAATTAA [CACACA_site5963],9.44 ± 0.3
17,ATTCACTGGTATGCATGAAAAAAAATATTATTATAA [CACACA_negctrl_site702],8.45 ± 0.44
18,TATATATATTTATACACACACATATATTTATATATT [CACACA_site484],9.22 ± 0.38
19,TTATGTGTATACTAAGAACACACAAGTTACTTGGTG [CACACA_site8467],9.77 ± 0.41
20,ATTTTGATAACCGTACGTACATATATATATATATAT [XGTACX_site6605],9.79 ± 0.028
21,TGAATACTTATGTTCGCACACATGCAAATTAAAAAA [CACACA_site4048],8.96 ± 0.43
22,ACATTCAATAAACGTCGTACACTTTCCTTTTTATGA [XGTACX_site3274],8.86 ± 0.52
